Assay results as given in PubChem BioAssay (NCI).
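Where inhibition never reached the appropriate level, the endpoint shown equals the highest concentration tested. Otherwise, values were interpolated linearly from a five-concentration, 48-hour dose response in 96-well plates. Here, GI50 denotes the concentration required for 50% inhibition of growth. TGI is the concentration that stops growth completely.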

Tested on: NCI-H322M lung
Experiment: NCI anticancer screen, dose series, 48 h

SMILES | GI50 [µM] | TGI [µM]
O=C(/C=C/c1ccccc1)c1nc2ccccc2n1Cc1ccc(Br)cc1 | 3.23 | 11.3
O=C(/C=C/c1cccc(Br)c1)c1nc2ccccc2n1Cc1ccc(F)cc1 | 13.4 | 50.3
